SMILES strings stand for the structures. Hit rate of the full screen: of about 310,000 compounds, about 2,200 (0.71%) showed an effect of 50% or more. The effect is printed as a negative number. The list shows a part of the results.

Sequence of human ether-à-go-go-related gene (hERG) potassium channel (Q12809 whole entry, looked up): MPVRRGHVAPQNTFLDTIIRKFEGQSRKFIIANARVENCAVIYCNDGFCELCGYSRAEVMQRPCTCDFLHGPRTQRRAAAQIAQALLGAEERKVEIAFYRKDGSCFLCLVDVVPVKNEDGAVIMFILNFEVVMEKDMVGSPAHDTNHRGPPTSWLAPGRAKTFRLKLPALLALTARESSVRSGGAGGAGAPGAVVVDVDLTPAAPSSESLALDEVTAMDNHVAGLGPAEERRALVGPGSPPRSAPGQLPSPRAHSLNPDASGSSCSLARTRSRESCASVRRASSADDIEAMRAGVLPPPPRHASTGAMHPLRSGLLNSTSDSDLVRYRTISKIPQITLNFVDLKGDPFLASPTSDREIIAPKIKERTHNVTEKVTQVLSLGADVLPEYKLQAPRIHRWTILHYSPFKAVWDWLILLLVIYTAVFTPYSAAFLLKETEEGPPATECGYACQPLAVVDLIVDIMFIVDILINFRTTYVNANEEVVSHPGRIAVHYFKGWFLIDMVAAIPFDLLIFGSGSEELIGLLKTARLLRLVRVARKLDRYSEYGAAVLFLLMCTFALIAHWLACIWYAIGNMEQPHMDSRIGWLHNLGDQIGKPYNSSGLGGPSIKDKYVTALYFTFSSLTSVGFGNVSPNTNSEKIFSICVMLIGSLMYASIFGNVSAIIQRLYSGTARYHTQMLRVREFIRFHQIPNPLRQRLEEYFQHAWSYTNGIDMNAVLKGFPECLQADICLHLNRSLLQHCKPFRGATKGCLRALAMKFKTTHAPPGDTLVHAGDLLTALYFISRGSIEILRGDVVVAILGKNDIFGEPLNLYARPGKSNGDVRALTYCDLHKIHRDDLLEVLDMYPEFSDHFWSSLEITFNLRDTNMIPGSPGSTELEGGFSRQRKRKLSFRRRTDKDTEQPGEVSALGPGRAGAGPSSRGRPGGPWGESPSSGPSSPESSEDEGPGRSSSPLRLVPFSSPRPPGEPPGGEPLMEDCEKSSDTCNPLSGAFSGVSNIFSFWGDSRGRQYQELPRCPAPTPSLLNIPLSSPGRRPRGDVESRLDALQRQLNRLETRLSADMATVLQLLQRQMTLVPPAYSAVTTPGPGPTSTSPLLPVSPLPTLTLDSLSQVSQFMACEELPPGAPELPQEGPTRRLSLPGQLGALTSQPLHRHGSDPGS

The assay has as its target human ether-à-go-go-related gene (hERG) potassium channel (human, UniProt Q12809). Briefly: primary screen, population patch clamp on CHO cells stably expressing hERG.
Consider `CC(C)CCNC(=O)CSc1nnc(-c2ccc(S(=O)(=O)N3CCCC3)cc2)n1C`, for which the “hERG current change (%, negative = inhibition) at 1uM” value came to 25.7%.

Turning to `Cc1ccc(N(Cc2cc3ccc(C)cc3[nH]c2=O)C(=O)c2ccco2)c(C)c1`, the “hERG current change (%, negative = inhibition) at 1uM” value amounted to 3.02%.

Regarding `Cn1c(SCC(=O)N/N=C/c2ccc([N+](=O)[O-])s2)nnc1-c1ccccc1`, the “hERG current change (%, negative = inhibition) at 1uM” value is reported as -6.56%.

For `COc1ccc(S(=O)(=O)N2CCOC23CCN(C(=O)c2ccccc2OC)CC3)cc1`, the “hERG current change (%, negative = inhibition) at 1uM” value is recorded as 3.7%.

Regarding `Cc1cccc(C(C)C)c1NC(=O)COC(=O)c1cccc(S(=O)(=O)N2CCc3ccccc3C2)c1`, the “hERG current change (%, negative = inhibition) at 1uM” value was found to be 9.87%.

For the molecule `CCN(CC)CC#CC(O)(c1ccccc1)c1ccccc1`, the “hERG current change (%, negative = inhibition) at 1uM” value is on record as -6.83%.

As to `Cc1sc2nc(CSc3ccccc3)nc(NCCN(C)C)c2c1C`, the “hERG current change (%, negative = inhibition) at 1uM” value was -50.1%.

For the molecule `COC(=O)C1=C(C)NC(=O)/C1=C\c1cccs1`, the “hERG current change (%, negative = inhibition) at 1uM” value turned out to be 0.0419%.

Take `O=C(COC(=O)c1cccc(OC(F)F)c1)NC(=O)NC1CCCCC1`: the “hERG current change (%, negative = inhibition) at 1uM” value amounted to 16.8%.

As to `Cc1ccc(/C=C/C(=O)Nc2ccc(N(C)C)cc2)o1`, the “hERG current change (%, negative = inhibition) at 1uM” value amounted to 3.4%.

Consider `CCN(CC(=O)Nc1ccccc1OC)CC(=O)Nc1sccc1C#N`, for which the “hERG current change (%, negative = inhibition) at 1uM” value was 5.94%.

With `CCN1C(=O)c2ccccc2Sc2ccc(C(=O)NC(C)C)cc21`, the “hERG current change (%, negative = inhibition) at 1uM” value is listed as 12%.

For `CCC(=O)Nc1nc2nc(-c3ccccc3)cc(=O)n2[nH]1`, the “hERG current change (%, negative = inhibition) at 1uM” value turned out to be 9.51%.

Take `Cc1ccccc1Nc1nc(N)nc(CSc2nnc3sc4ccccc4n23)n1`: the “hERG current change (%, negative = inhibition) at 1uM” value turned out to be 16%.

As to `COC(=O)C1=CN(c2ccc(OC)cc2)C=C(C(=O)OC)C1c1ccc([N+](=O)[O-])cc1`, the “hERG current change (%, negative = inhibition) at 1uM” value is 16.9%.

Regarding `COC(=O)NC(C)N1C(=O)C2C3C=CC(C3)C2C1=O` (centres unmarked), the “hERG current change (%, negative = inhibition) at 1uM” value came out at 8.19%.

As for `COc1cccc2[nH]c3c(=O)n(CCN(C)C)cnc3c12`, the “hERG current change (%, negative = inhibition) at 1uM” value is on record as 3.41%.

As for `CC(C(=O)Nc1ccc(C#N)cc1)N(C)CC(=O)Nc1cccc(F)c1` (centres unmarked), the “hERG current change (%, negative = inhibition) at 1uM” value is on record as -43.5%.

`Cc1cccc(CSc2ccc3nnc(-c4ccccn4)n3n2)c1`: the “hERG current change (%, negative = inhibition) at 1uM” value is -58.9%.

For the molecule `CN1CCc2c(sc3c2C(=O)NC(c2cccs2)N3)C1` (centres unmarked), the “hERG current change (%, negative = inhibition) at 1uM” value is given as -0.102%.

Consider `Cc1ccc2c3c1C(=O)C(=O)N3C(C)(C)CC2C` (centres unmarked), for which the “hERG current change (%, negative = inhibition) at 1uM” value is recorded as -2.23%.

Consider `O=C(CCN1C(=O)c2ccccc2C1=O)NCc1ccc(Cl)cc1`, for which the “hERG current change (%, negative = inhibition) at 1uM” value is 5.62%.

In the case of `Cc1cc(=O)[nH]c2n[nH]c(-c3ccccc3)c12`, the “hERG current change (%, negative = inhibition) at 1uM” value is on record as 3.87%.

On to `Cc1cccc(-c2nc(S(=O)(=O)c3ccccc3)c(N3CCOCC3)o2)c1`, for which the “hERG current change (%, negative = inhibition) at 1uM” value was 3.01%.

With `Cc1cccc2sc(NNC(=O)C3=COCCO3)nc12`, the “hERG current change (%, negative = inhibition) at 1uM” value is on record as -21.6%.

`O=S(=O)(c1ccc(F)cc1)N1CCN(S(=O)(=O)c2cccs2)CC1`: the “hERG current change (%, negative = inhibition) at 1uM” value is listed as 9.14%.

Regarding `CN1CCN(C(=S)SCC(=O)Nc2ccc(Cl)cc2C(=O)c2ccccc2)CC1`, the “hERG current change (%, negative = inhibition) at 1uM” value was -5.6%.

For `CN(CC(=O)NCC1CCCO1)S(=O)(=O)c1cc(Cl)ccc1Cl` (centres unmarked), the “hERG current change (%, negative = inhibition) at 1uM” value amounted to 0.917%.

In the case of `COc1ccc(CNC(=O)CSc2nnc(C3CC3)n2C2CC2)cc1`, the “hERG current change (%, negative = inhibition) at 1uM” value stood at 8.45%.

With `Cc1ccc(S(=O)(=O)N2CCN(C(=O)COC(=O)Cc3cccc(C(F)(F)F)c3)CC2)c(C)c1`, the “hERG current change (%, negative = inhibition) at 1uM” value was 7.77%.

For `Cn1c(=O)c2nc(Cl)c(-c3ccccc3)nc2n(C)c1=O`, the “hERG current change (%, negative = inhibition) at 1uM” value is listed as -0.094%.

In the case of `COc1cc(NC(=O)c2cccnc2Sc2ccc(Cl)cc2)cc(OC)c1OC`, the “hERG current change (%, negative = inhibition) at 1uM” value worked out at 6.7%.

For `Nc1nccnc1C(=O)OCC(=O)c1ccc[nH]1`, the “hERG current change (%, negative = inhibition) at 1uM” value is 5.19%.

Regarding `O=C(c1oc(=O)c2ccccc2c1-c1ccccc1)N1CCN(C2CCCCC2)CC1`, the “hERG current change (%, negative = inhibition) at 1uM” value is -22.8%.

As to `O=C(CC(=O)NCc1ccccc1)NCc1ccccc1`, the “hERG current change (%, negative = inhibition) at 1uM” value was found to be 13.9%.

As for `CCOc1ccc(C2/C(=C(/O)c3ccc4c(c3)CC(C)O4)C(=O)C(=O)N2CCCn2ccnc2)cc1` (centres unmarked), the “hERG current change (%, negative = inhibition) at 1uM” value was 14.3%.

Take `COC(=O)C1=C(C)Nc2nnnn2C1c1cccs1` (centres unmarked): the “hERG current change (%, negative = inhibition) at 1uM” value is 1.42%.

In the case of `Cc1cc(C)n2nc(SC(C)C(=O)NC3CCCCC3C)nc2n1` (centres unmarked), the “hERG current change (%, negative = inhibition) at 1uM” value stood at 2.75%.

With `COC(=O)C1CCN(C(=O)COC(=O)CSc2ccc(C(N)=O)cc2[N+](=O)[O-])CC1`, the “hERG current change (%, negative = inhibition) at 1uM” value is on record as 8.5%.

Consider `C[C@@H](CN=[N+]=[N-])CN1CC[C@H](O)CCC1=O`, for which the “hERG current change (%, negative = inhibition) at 1uM” value stood at 11.5%.

Consider `CC(=O)N(C)c1ccc(NC(=O)Nc2ccc(Cl)cc2)cc1`, for which the “hERG current change (%, negative = inhibition) at 1uM” value stood at 8.67%.

In the case of `Cc1ccc(OCCCCN2CCCCC2)c(Br)c1.O=C(O)C(=O)O`, the “hERG current change (%, negative = inhibition) at 1uM” value is recorded as -28.5%.

`O=C(NCCc1ccc(Cl)cc1)C1CCC(CNc2c(N3CCCCC3)c(=O)c2=O)CC1` (centres unmarked): the “hERG current change (%, negative = inhibition) at 1uM” value is reported as 10.4%.

As to `C[C@H](NC(=O)C1CCN(S(=O)(=O)c2ccccc2)CC1)C(=O)NCc1ccco1`, the “hERG current change (%, negative = inhibition) at 1uM” value turned out to be 26.6%.
